Source: the RNAGym collection of RNA variant scans (doi:10.1101/gad.245936.114)
Variants at the background level are over-represented here.

B1: tRNA (parent)
chain: CUCUCGGUAGCCAAGUUGGUUUAAGGCGCAAGACUUUAAUUUAUCACUACGAAAUCUUGAGAUCGGGCGUUCGACUCGCCCCCGGGAGAUUUUUUCCUCGAGCAA

Variants of: B1
Assay: nonsense suppression (GFP-seq) (ratio to wild type); higher = more function; SUP4oc tRNA, yeast GFP reporter sort-seq
Method in brief: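 Each variant's nonsense suppression (GFPSEQ) is a cell-share-weighted bin median GFP/RFP relative to the unmutated parent tRNA. Yeast with genome-integrated tRNA variants from a ~3% random-mutation library, a galactose-driven GFP ochre reporter and RFP were grown in raffinose/galactose medium with 80 mg/L adenine, then sorted into GFP/RFP bins for Illumina sequencing. Variants needed ≥100 reads and ≥30 cells.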

CUCUCGGUAGCCAAGUUGGUUUAAGGCGCAAGACUUUAAUUUAUCACUACGAAAUGUUGAGAUCGGGCAUUCGACUCGCCCCCGGGAGAUUUUUUCCUCGAGCAA [C56G G69A] and CUCUCGGUAGCCAAGUUGGUUUAAGGCGCAAGACUUUAAUUUAUCACUACGAAAUGUUGAGAUCGGGCAUCCGACUCGCCCCCGGGAGAUUUUUUCCUCGAGCAA [C56G G69A U71C] cannot be ordered by nonsense suppression: no more than 0.026 for the first, no more than 0.026 for the second.

CUCUCGGUAGCCAAGUUGGUUUAAGGCGCAAGACUUUAAUUUAUCACUACGAAAUGUUGAGAUCGGGCCAUCGACUCGCCCCCGGGAGAUUUUUUCCUCGAGCAA [C56G G69C U70A] and CUCUCGGUAGCCAAGUUGGUUUAAGGCGCAAGACUUUAAUUUAUCACUACGAAAUGUUGAGAUCGGGCGUUCGACUCCCCCCCGGGAGAUUUUUUCCUCGAGCAA [C56G G78C] cannot be ordered by nonsense suppression: no more than 0.026 for the first, no more than 0.026 for the second.

CUCUCGGUAGCCAAGUUGGUUUAAGGCGCAAGACUUUAAUUUAUCACUACGAAAUGUUGAGAUCGGGCGUUCGACUCGCCCCCAGGAGAUUUUUUCCUCGAGCAA [C56G G84A] and CUCUCGGUAGCCAAGUUGGUUUAAGGCGCAAGACUUUAAUUUAUCACUACGAAAUGUUGAGAUCGGGCGUUCGACUCGCCCCCGGGAAAUUUUUUCCUCGAGCAA [C56G G88A] cannot be ordered by nonsense suppression: no more than 0.026 for the first, no more than 0.026 for the second.

CUCUCGGUAGCCAAGUUGGUUUAAGGCGCAAGACUUUAAUUUAUCACUACGAAAUGAUGAGAUCGGGCGUUCGACUCGCCCCCGGGAGAUUUUUUCCUCGAGCAA [C56G U57A] and CUCUCGGUAGCCAAGUUGGUUUAAGGCGCAAGACUUUAAUUUAUCACUACGAAAUGAUGAGAUCGGGCGUUGGACUCGCCCCCGGGAGAUUUUUUCCUCGAGCAA [C56G U57A C72G] cannot be ordered by nonsense suppression: no more than 0.026 for the first, no more than 0.026 for the second.

CUCUCGGUAGCCAAGUUGGUUUAAGGCGCAAGACUUUAAUUUAUCACUACGAAAUGAUGAGAUCUGGCUUUCGACUCGCCCCCGGGAGAUUUUUUCCUCGAGCAA [C56G U57A G65U G69U] and CUCUCGGUAGCCAAGUUGGUUUAAGGCGCAAGACUUUAAUUUAUCACUACGAAAUGGUGAGAUCGGGAGUUCGACUCCCCCACGGGAGAUUUUUUCCUCGAGCAA [C56G U57G C68A G78C C82A] cannot be ordered by nonsense suppression: no more than 0.026 for the first, no more than 0.026 for the second.

CUCUCGGUAGCCAAGUUGGUUUAAGGCGCAAGACUUUAAUUUAUCACUACGAAAUGUCGAGAUCGCGCGUUCGACUCGCCCCCGGGAGAUUUUUUCCUCGAGCAA [C56G U58C G66C] and CUCUCGGUAGCCAAGUUGGUUUAAGGCGCAAGACUUUAAUUUAUCACUACGAAAUGUCGAGAUCGCGCGCUCGACUCGCCCCCGGGAGAUUUUUUCCUCGAGCAA [C56G U58C G66C U70C] cannot be ordered by nonsense suppression: no more than 0.026 for the first, no more than 0.026 for the second.

CUCUCGGUAGCCAAGUUGGUUUAAGGCGCAAGACUUUAAUUUAUCACUACGAAAUGUGGUGAUCGGGCGUUCGACUGGCCCCCGGGAGAUUUUUUCCUCGAGCAA [C56G U58G A60U C77G] and CUCUCGGUAGCCAAGUUGGUUUAAGGCGCAAGACUUUAAUUUAUCACUACGAAAUGUUGAGAUCGGGCGAUCGACUCGCCCCCGGGAGAUUUUUUCCUCGAGCAA [C56G U70A] cannot be ordered by nonsense suppression: no more than 0.026 for the first, no more than 0.026 for the second.

Going from CUCUCGGUAGCCAAGUUGGUUUAAGGCGCAAGACUUUAAUUUAUCACUACGAAAUGUUGAGAUCGGGCGUUCGACACCCCCCCGGGAGAUUUUUUCCUCGAGCAA [C56G U76A G78C] to CUCUCGGUAGCCAAGUUGGUUUAAGGCGCAAGACUUUAAUUUAUCACUACGAAAUUUUGAGAUCGGGCGUUCGACUCGCCCCCGGGAGAUUUUUUCCUCGAGCAA [C56U], the nonsense suppression rises from no more than 0.026 to 0.15.

CUCUCGGUAGCCAAGUUGGUUUAAGGCGCAAGACUUUAAUUUAUCACUACGAAAUUUUGAGCUCGGGCGUUCGACUCGCCCCCGGGAGAUUUUUUCCUCGAGCAA [C56U A62C] and CUCUCGGUAGCCAAGUUGGUUUAAGGCGCAAGACUUUAAUUUAUCACUACGAAAUUUUGAGGCCGGGCGUUCGACUCGCCCCCGGGAGAUUUUUUCCUCGAGCAA [C56U A62G U63C] cannot be ordered by nonsense suppression: no more than 0.026 for the first, no more than 0.026 for the second.

CUCUCGGUAGCCAAGUUGGUUUAAGGCGCAAGACUUUAAUUUAUCACUACGAAAUUUUGAGAUAGGGCGUUCGCAUCGCCCCCGGGAGAUUUUUUCCUCGAGCAA [C56U C64A A74C C75A] and CUCUCGGUAGCCAAGUUGGUUUAAGGCGCAAGACUUUAAUUUAUCACUACGAAAUUUUGAGAUGGGGCGUUCCACUCGCCGCCGGGAGAUUUUUUCCUCGAGCAA [C56U C64G G73C C81G] cannot be ordered by nonsense suppression: no more than 0.026 for the first, no more than 0.026 for the second.

CUCUCGGUAGCCAAGUUGGUUUAAGGCGCAAGACUUUAAUUUAUCACUACGAAAUUUUGAGAUUGGGCGUUCGACUCGCCCCCGGGAGAUUUUUUCCUCGAGCAA [C56U C64U] and CUCUCGGUAGCCAAGUUGGUUUAAGGCGCAAGACUUUAAUUUAUCACUACGAAAUUUUGAGAUCGGGAGUUCGACACGCCCCCGGGUAAUUUUUUCCUCGAGCAA [C56U C68A U76A A87U G88A] cannot be ordered by nonsense suppression: no more than 0.026 for the first, no more than 0.026 for the second.

CUCUCGGUAGCCAAGUUGGUUUAAGGCGCAAGACUUUAAUUUAUCACUACGAAAUUUUGAGAUCGGGCGUUCGAAUCGCCCCCGGGCGAUUUUUUCCUCGAGCAA [C56U C75A A87C] and CUCUCGGUAGCCAAGUUGGUUUAAGGCGCAAGACUUUAAUUUAUCACUACGAAAUUUUGAGAUCGGGCGUUCGACUGGCCCCCGGGAGAUUUUUUCCUCGAGCAA [C56U C77G] cannot be ordered by nonsense suppression: no more than 0.026 for the first, no more than 0.026 for the second.

CUCUCGGUAGCCAAGUUGGUUUAAGGCGCAAGACUUUAAUUUAUCACUACGAAAUUUUUAGAUCGGGCGUUCGACUCGUCCCCGGGAGAUUUUUUCCUCGAGCAA [C56U G59U C79U] and CUCUCGGUAGCCAAGUUGGUUUAAGGCGCAAGACUUUAAUUUAUCACUACGAAAUUUUGAGAUCGGGCGUUCGACUCGCCCCCUGGAGAUUUUUUCCUCGAGCAA [C56U G84U] cannot be ordered by nonsense suppression: no more than 0.026 for the first, no more than 0.026 for the second.

Variant CUCUCGGUAGCCAAGUUGGUUUAAGGCGCAAGACUUUAAUUUAUCACUACGAAAUUUUGAGAUCGGGCGUUCGACUCGCCCCCGGUAGAUUUUUUCCUCGAGCAA [C56U G86U] has a nonsense suppression of no more than 0.026.
